# Experimental data reported in the supplement of paper PMC4166925.
# ± gives the standard deviation of the averaged measurements. In all, about 33,000 sequences were measured (“E-score (dimensionless, -0.5 to 0.5)”: median about -0.049, highest 2% from about 0.37 on). The list shows a part of the results.
# Test system: T1, PmTbr T-box DNA-binding domain (GST fusion)
# T1 sequence: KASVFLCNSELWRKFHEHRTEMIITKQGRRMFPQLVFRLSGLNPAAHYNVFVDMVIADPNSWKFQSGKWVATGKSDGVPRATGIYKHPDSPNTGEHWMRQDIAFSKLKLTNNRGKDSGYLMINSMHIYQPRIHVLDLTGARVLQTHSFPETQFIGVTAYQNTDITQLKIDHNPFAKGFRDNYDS
# Assay: PBM E-score of 8-mer (E-score (dimensionless, -0.5 to 0.5)); Tbr is Tbrain of the sea star Patiria miniata (Pm) or the sea urchin Strongylocentrotus purpuratus (Sp); higher = stronger binding preference; most listed sequences are background and not binding sites
# Conditions: the construct has about 5 more residues each side
# Method in brief: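 Using the Universal PBM Analysis Suite, every ungapped 8-mer received an enrichment E-score averaged over duplicate arrays. Probe intensities came from double-stranded Universal Agilent oligonucleotide arrays incubated with 200 nM GST-fused Tbr T-box DNA-binding domain in PBS (pH 7.5). That protein was expressed in BL21 E. coli at 20 °C and purified by glutathione affinity chromatography.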
row,Sequence,PBM E-score of 8-mer
1,CCGGACTA,-0.113 ± 0.048
2,TCCCACGA,0.0489 ± 0.034
3,GCTAGGTA,-0.154 ± 0.03
4,AGGCTTAC,-0.163 ± 0.068
5,AAAAACGT,0.0206 ± 0.13
6,CGGCATAC,-0.264 ± 0.019
7,AAGTTGTG,0.304 ± 0.0088
8,CACACGAC,0.193 ± 0.025
9,ATTACACG,0.132 ± 0.12
10,AACAAATA,-0.0317 ± 0.017
11,GAACTTCA,-0.107 ± 0.026
12,GGTGTCAA,0.474 ± 0.0055
13,AGTGCCGA,0.156 ± 0.006
14,GAGATAGC,0.0313 ± 0.022
15,CCCGCTAG,0.00485 ± 0.03
16,CAGAGTTC,-0.142 ± 0.008
17,GCTAAAAC,0.136 ± 0.011
18,CGCCTCAC,0.284 ± 0.037
19,AGGACGGG,-0.308 ± 0.023
20,TAGCGTAA,0.134 ± 0.03
21,CTAGCCTA,-0.021 ± 0.0087
22,CCTGACGA,0.105 ± 0.03
23,CGCCCTTC,-0.000295 ± 0.035
24,GGTACAAC,-0.133 ± 0.062
25,CTCTGCGC,0.0923 ± 0.0056

row,Sequence,PBM E-score of 8-mer
1,AGTATTGC,-0.0321 ± 0.069
2,CCAGGCAC,-0.1548 ± 0.0011
3,CCCTCTCG,0.0695 ± 0.027
4,GAATTTCA,0.0376 ± 0.0096
5,CTCATTGC,-0.166 ± 0.087
6,ATTAGATA,-0.188 ± 0.017
7,AGCCTCCA,-0.096 ± 0.075
8,CAACCAAC,-0.0357 ± 0.0075
9,TTCGGAAA,-0.149 ± 0.067
10,GGGTCAAC,-0.0546 ± 0.098
11,TGAGGGCA,-0.174 ± 0.021
12,ACATCTAC,0.167 ± 0.0066
13,GGGTTCGA,-0.0834 ± 0.013
14,TCCTACCA,-0.0535 ± 0.047
15,ATTCCTTG,0.126 ± 0.08
16,GCAGTTAA,-0.0575 ± 0.045
17,GAAGGAAA,-0.222 ± 0.05
18,AATATCCC,-0.225 ± 0.011
19,ATTAGGGC,-0.211 ± 0.025
20,ATTGAACC,-0.179 ± 0.024
21,CAAATGCG,-0.00842 ± 0.092
22,AACGTCAG,-0.269 ± 0.053
23,CATCGTTC,-0.129 ± 0.002
24,AGCCGCAC,0.0997 ± 0.087
25,AACGCTGT,0.0724 ± 0.032

row,Sequence,PBM E-score of 8-mer
1,CGAAATAC,-0.0177 ± 0.016
2,GTTGCGTA,0.04 ± 0.086
3,AAGCTATA,-0.139 ± 0.0046
4,CAAGGGTC,-0.306 ± 0.022
5,AGCAAATA,-0.0751 ± 0.011
6,GGCTCTAA,0.117 ± 0.085
7,CAGCCATG,-0.1522 ± 0.00017
8,CGTAACGC,0.0922 ± 0.064
9,AGGTCAAG,-0.165 ± 0.0073
10,CCCGCTTA,-0.202 ± 0.061
11,GCAGCTCC,0.0447 ± 0.0076
12,TACTAGAA,-0.278 ± 0.0043
13,GGTTAGAA,-0.267 ± 0.013
14,ATCTCGTA,-0.141 ± 0.0085
15,CGAGGTGC,0.457 ± 0.01
16,GCTAGCTA,0.0889 ± 0.046
17,AACGGAGT,0.111 ± 0.085
18,ACGTAAGC,0.0674 ± 0.031
19,ATGGAGAC,-0.159 ± 0.057
20,ATTATATC,-0.158 ± 0.055
21,CATGCACC,-0.11 ± 0.037
22,CTCGAGTC,-0.257 ± 0.034
23,GAGCCCAA,-0.147 ± 0.029
24,GGTATGAA,-0.0417 ± 0.037
25,AAGATTGC,0.0269 ± 0.04

row,Sequence,PBM E-score of 8-mer
1,CTGCGTGA,0.121 ± 0.065
2,GGGTTGCA,-0.0321 ± 0.041
3,CGGTATTC,-0.156 ± 0.036
4,CCAGATAG,-0.0965 ± 0.062
5,AAAGTTAT,0.0134 ± 0.041
6,AGTAACTC,-0.0139 ± 0.0087
7,GTCCCACA,0.184 ± 0.035
8,AACTTGAG,-0.0256 ± 0.072
9,ATGTGCTA,0.396 ± 0.0083
10,CGACCATC,0.0528 ± 0.0063
11,CATCCACA,0.207 ± 0.033
12,ACGCTAAG,0.142 ± 0.032
13,GGACAGGA,-0.175 ± 0.027
14,GTAGTACA,-0.179 ± 0.0093
15,ATCACGAT,-0.00823 ± 0.00026
16,ATCGAAGG,-0.102 ± 0.029
17,CCCACCGA,0.0185 ± 0.054
18,GGCAGATA,-0.118 ± 0.038
19,GCCGTCGC,0.129 ± 0.043
20,CTATCTGA,0.183 ± 0.026
21,CGATTTCC,0.083 ± 0.072
22,CAGGTCAC,0.165 ± 0.025
23,ACGCTTTA,0.0687 ± 0.07
24,TAATCTGA,-0.115 ± 0.081
25,GGTTAAGA,-0.259 ± 0.074

row,Sequence,PBM E-score of 8-mer
1,ACGCAGAG,0.0178 ± 0.036
2,CAGGCGAC,0.196 ± 0.0031
3,AGCAAAGG,-0.1 ± 0.015
4,GGCGATTA,-0.187 ± 0.037
5,AATGCTAA,-0.109 ± 0.037
6,AGTGTGGG,0.36 ± 0.0037
7,CTTTTATC,-0.0159 ± 9.9e-05
8,GAAACTCC,-0.109 ± 0.016
9,ATTTCGAA,-0.113 ± 0.042
10,CTTGTCCC,-0.152 ± 0.045
11,GGTGAAAC,0.0805 ± 0.054
12,AGTAAGAC,-0.11 ± 0.028
13,TCAGATCA,-0.129 ± 0.038
14,GTACGAGA,-0.179 ± 0.055
15,ACATGACC,-0.0888 ± 0.025
16,CCGAAGAA,-0.235 ± 0.059
17,ACGAACCC,-0.247 ± 0.028
18,TATACTCA,-0.223 ± 0.07
19,GCTCCTCA,-0.141 ± 0.015
20,ATAATTTC,-0.135 ± 0.066
21,AGTCAGTA,-0.00685 ± 0.034
22,GTGAGACA,0.3321 ± 0.0027
23,ATCCTATC,-0.164 ± 0.039
24,GCCAAACC,0.0971 ± 0.069
25,ATAGGAAA,-0.218 ± 0.0043

row,Sequence,PBM E-score of 8-mer
1,AGTCCTTC,-0.1644 ± 0.00098
2,CCCATCCA,-0.159 ± 0.0058
3,CGATGCCG,-0.0591 ± 0.025
4,CGAGCGGC,-0.146 ± 0.064
5,CAAAGCAA,0.0287 ± 0.0068
6,ACTCAACC,-0.195 ± 0.055
7,GCCGGCCA,0.117 ± 0.052
8,ACCCCAAT,-0.11 ± 0.012
9,AGTCAGTC,-0.189 ± 0.16
10,GAGCTAAC,0.07 ± 0.036
11,AATTCCGG,-0.0633 ± 0.059
12,AGTTGACA,0.407 ± 0.008
13,CCGGCGTC,0.0458 ± 0.063
14,ACCGCATA,-0.149 ± 0.053
15,CTCGCGTC,0.16 ± 0.043
16,CAATATAC,-0.0685 ± 0.036
17,ACACCGAT,0.191 ± 0.0068
18,ACAGACAC,0.245 ± 0.053
19,CCTACATC,-0.272 ± 0.027
20,GCTCATCA,-0.115 ± 0.012
21,CGTGCTTA,-0.157 ± 0.03
22,ACTATTCT,-0.0179 ± 0.007
23,GCCATCCC,-0.237 ± 0.083
24,AGTGCTAC,0.276 ± 0.031
25,CCAAGGAC,-0.133 ± 0.021

row,Sequence,PBM E-score of 8-mer
1,CAAGCTGC,0.0105 ± 0.018
2,CAATAACA,0.00373 ± 0.058
3,AGAATTGC,0.125 ± 0.041
4,TGAGCAAA,0.0705 ± 0.069
5,AGAACGCA,-0.107 ± 0.035
6,TCGATCAA,-0.0163 ± 0.0032
7,TCTGTCAA,0.152 ± 0.039
8,CTGTCTGA,-0.0433 ± 0.0046
9,ATGTCCGC,-0.174 ± 0.072
10,GACATCGC,0.0476 ± 0.037
11,ATAAGGTG,0.387 ± 0.0095
12,ATGGTCCA,-0.275 ± 0.063
13,TCGGACAA,-0.0104 ± 0.018
14,TTAGATAA,-0.23 ± 0.014
15,CGTGCATA,-0.211 ± 0.0082
16,GAATTATC,0.00993 ± 0.073
17,CACAAAAC,0.157 ± 0.028
18,CCCCATCC,-0.124 ± 0.0024
19,CAACAGTC,-0.0956 ± 0.065
20,CGGTTTCC,0.00347 ± 0.02
21,AATCACGA,0.0882 ± 0.0077
22,CTCGTATC,0.0014 ± 0.00064
23,AGGTACAT,-0.316 ± 0.051
24,CCCTAGGA,-0.0775 ± 0.091
25,ACCAGGAC,-0.0452 ± 0.062

row,Sequence,PBM E-score of 8-mer
1,ACAAGAAA,-0.234 ± 0.025
2,AGAATGAG,-0.241 ± 0.0046
3,AGGCGAGA,0.401 ± 0.011
4,CGTAGGAC,-0.0714 ± 0.064
5,CCTTTCTA,-0.0136 ± 0.013
6,GACACAAA,0.124 ± 0.036
7,CTCGTGCA,-0.00814 ± 0.022
8,CGGAATCC,-0.269 ± 0.006
9,CGCGATAC,0.244 ± 0.01
10,AATCCATA,-0.162 ± 0.027
11,GCTTACTA,-0.228 ± 0.036
12,ACAACGGG,0.0346 ± 0.029
13,AGAATCAC,0.171 ± 0.015
14,CCACGTCG,-0.0145 ± 0.18
15,CGACTAGA,-0.146 ± 0.037
16,CCAGGCTA,-0.0803 ± 0.0093
17,ACTCACCG,-0.0077 ± 0.1
18,CATTTGAC,-0.08 ± 0.12
19,CCGACGGA,-0.182 ± 0.0088
20,GTAGGACA,-0.0977 ± 0.038
21,CTTGAGCA,-0.0771 ± 0.029
22,ACGGCAAT,-0.103 ± 0.029
23,CAGGCTCG,0.116 ± 0.065
24,TCACGTGA,0.236 ± 0.029
25,GTCCCAAA,-0.248 ± 0.049

row,Sequence,PBM E-score of 8-mer
1,CTAACTAC,-0.0809 ± 0.0053
2,GCGACTCA,0.148 ± 0.019
3,GGAACAAA,-0.232 ± 0.012
4,GAAAATTA,-0.0611 ± 0.15
5,CTAGGACC,-0.15 ± 0.0081
6,AGTAGAGA,-0.165 ± 0.0094
7,TACCGGAA,-0.0972 ± 0.041
8,CTCGGTAC,-0.0869 ± 0.017
9,CCCGACAA,0.208 ± 0.044
10,CCCGCGTA,-0.15 ± 0.1
11,ACAATGGG,-0.0639 ± 0.019
12,GCGCTCAC,0.195 ± 0.0064
13,CGTCTGTA,-0.0955 ± 0.033
14,AGTATAAA,-0.14 ± 0.1
15,AGGATGAA,-0.1541 ± 0.00086
16,ATGGGCAC,-0.159 ± 0.019
17,GAGCGGGC,-0.00946 ± 0.086
18,AAAGCTCA,-0.089 ± 0.062
19,AGACAATC,-0.0393 ± 0.0034
